Test results taken from the supplement of paper PMC10126150.
Values marked as one replicate rest on one cluster of the flow cell; about a third of the high ones do not repeat.

System: ATP
Assay: switch fluorescence ratio, 500 uM ATP over buffer (Cy3 cluster intensity, sum of 5 cycles each) (fold (ratio)); higher = stronger signal-on switching upon ATP binding; sequences stand for … in TCGTCGGCAGCGTCAGATGTGTATAAGAGACAGTTTTTTTTTTTTTTTTTTTTTTTTT…TC
Settings: aptamer strand: ATP DNA aptamer (quencher-CACCTGGGGGAGTATTGCGGAGGAAGG + anchor), 100 nM annealed; ATP concentration: 500 uM; one replicate
Outline: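 Per cluster, summed Cy3 intensity from the target cycles was divided by that from the buffer cycles to give the fluorescence ratio, then averaged per switch-domain sequence. Clusters outside 100-1000 RFU were excluded. The Cy3-labelled switching-strand clusters, on a modified Illumina MiSeq flow-cell, were annealed to 100 nM quencher-labelled ATP aptamer and imaged in selection buffer, then after 15 min with 500 uM ATP at 22 °C, for five cycles with NaOH stripping and re-annealing between them.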
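Further: ATP exposure 15 min at 22 °C before imaging.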

Sequence | switch fluorescence ratio
AGTCCGGCAA | 5.21
TGGTTATAGC | 0.99
AGGGGGTCCT | 0.966
CAATGCTGGT | 0.972
GAGGGGCGA | 1.02
ATAAATCCCC | 1
AAGTGTCTA | 0.969
TCTTGTGTGA | 1.02
GAACATGCGC | 1.08
GAAAAACGCC | 1.44
TTACCCTCAT | 1.1
ATACAGAACC | 1.07
ATGGAATGTC | 0.968
CGTTGGAACG | 0.989
ACGACTATTG | 1.07
CGCTTGTTCC | 1.05
GGACTGGTAC | 1.09
GTCTGAGGT | 0.962
GGTTATGCTT | 0.97
AACTGAACC | 1.24
CGTTGGCGTA | 0.938
GTGGTAGAGA | 1.06
GTACAG | 1.02

Sequence | switch fluorescence ratio
ATTGTTGGCT | 0.977
TTTTCATTGA | 1.02
GTTCACAGGG | 1.02
CAGATTTTG | 1.02
GACTTCCGGT | 1.16
GGCACTGCCG | 0.908
GAACAGTGCG | 1.01
TTGTTCAGAC | 1.04
CTTATCGGCG | 0.974
TATTTCCCGA | 1.03
AAAGTAAACG | 0.998
AGATTATTTG | 1.01
GAGTCGGCTT | 1
CGTAGTACAG | 0.981
GAACCTGCGT | 0.949
CATAGGGTAA | 0.999
TCGTTCAATG | 0.952
AGGATCTGCT | 0.993
GATCCCGCTG | 1.3
GTTGTTTGCC | 1.01
TGCTTAGTCA | 1.01
TATTTAGTCC | 1.02
GTCTATGCAT | 1.04

Sequence | switch fluorescence ratio
TACTAAGTCA | 0.978
GTTCCTGGTG | 2.66
GCAAAATCAG | 1.02
CTATCGGCAC | 1.16
GATCGTGAT | 0.992
GGGTTACACG | 0.994
TTCACTCAGC | 1.16
CATCTTTAAC | 1.04
TAAAGTTGTA | 1.01
GCCATCTGTT | 1.02
CGCGAGCGGG | 1.05
AAATGTGACT | 0.997
ACATGGTCGA | 0.996
GCCTCGTACC | 1.09
AGTTATTAT | 1
ATAAATGTG | 1.02
GACTCTTATG | 1.06
GGGGCTGCCC | 1.02
TGGTATATGA | 0.969
GGTTCATTGT | 0.933
TCAAAGCGGC | 1.07
ACGTACCGCA | 1.56
TTTTCACGGA | 0.999

Sequence | switch fluorescence ratio
AGGGGCATCT | 0.995
CCTGTTAAGG | 0.938
CGGTCATGTT | 0.989
TCAAGTGCGT | 0.97
CGATTTTG | 1
AAGTTCTAAT | 1.03
GAACCCATTT | 1.05
TCTTACGCCT | 1.01
TTTACGGTGT | 0.962
AAGCGGTTAG | 1
CGGTATAACA | 0.988
GTTTACAGC | 0.986
TCAGATCGTT | 0.995
GCAAATTAGT | 1.01
TTTATAAGAA | 1.08
CGGCGACCGG | 0.999
AGCTGGGTCT | 0.991
GACCAAGGAG | 1.03
AATCAGGTAC | 1.05
TCCGCATAGC | 1.88
ATTAGCCAAC | 1.05
GCCTCCAAAT | 1.72
ACTTAAAGTT | 1.01

Sequence | switch fluorescence ratio
AAGCATGAGC | 1.03
AGTTTAGGTG | 1.08
CTTCACCGTG | 1.09
GACCGGGGCG | 1.06
TATAAACGTT | 0.98
ATCAGAAAAG | 0.984
TGACCTCGAG | 0.955
AAGAACTA | 1.04
GTCGAGTAGG | 1.03
CTCAGCGTTC | 1.29
AGCAGGCATA | 1.02
CTACTAAGGG | 1.02
ACCCAGGATA | 1.18
TTTATGTGAA | 1.02
CGATATTAGG | 1.01
CGAGGTTGGA | 1.05
ACACAGTGTG | 1
AGGGTGGCCG | 1.07
GTCATGTCGC | 1.01
ATCTGGTAGA | 1.01
TTTCCGGGTT | 1.01
GCACCCAGAG | 1.52
GTTTAATCGA | 1.01

Sequence | switch fluorescence ratio
TCCTGGATGC | 1.29
AGATGACCAT | 0.975
ATAGGAAACT | 0.984
TCGTTCTATT | 1.04
GTAAGATATC | 1.03
TGTGAATCGG | 0.993
CCGTTGTGTC | 1.21
TAGGAAG | 1.01
CCTCCATCCT | 1.57
TGGCGTTCGT | 0.972
GTTCGAACTA | 0.997
TTTGGAATGA | 1.03
TAGCGAGTAC | 1.2
ACATTCATGG | 0.981
TATAGTAGT | 0.99
ATAGCCGCTG | 1.03
CAGTTAGTAA | 1.01
GAGGGCACAA | 1.06
TAGATTAGTC | 0.981
AGGCGAATGG | 0.991
AGTGTTGGA | 1
AGCAGCTACT | 1.33
AAGTGCCATC | 1.02

Sequence | switch fluorescence ratio
ATGGAGGGC | 0.948
GCGTCTTCAC | 1.03
CAATAGGGTA | 1.01
TGATTCAGTC | 1
ACTATCTTTC | 1.06
TTGTGTGCGC | 0.974
CCGCGTTTCT | 2.27
TTAGCTAAAG | 1.02
CCCACGGACC | 1.42
ACAGAGCCAT | 1.02
GTTATGGTAG | 1
TGTGGCATG | 1.02
CCCCTAGTCA | 1.06
CGACTCGCAC | 4
CAACATTATA | 1.02
GTTAGTAGTT | 1.02
TTGATTGTAA | 1
ATGGAGGGA | 0.972
GAAACCTTCT | 2.64
CGAGAGACGC | 1.01
